Variants at the background level are over-represented here.
B1: glmS ribozyme (parent)
chain: AUAAAAGCGCCAGAACUACAGAAAUGUAGUUGACGAGGAGGAGGUUUAUCGAAUUUUCGGCGGAUGCCUCCAAA

Key:
Settings in all cases: with glucosamine-6-phosphate
glucosamine-6-phosphate [1] = variants of: B1; assay: kcat; higher = faster cleavage; RNA array
Procedure, shortened: (§1)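 Glucosamine-6-phosphate in HEPES/KCl/Mg(OAc)2 buffer, at 40 μM to 10 mM, was flowed over barcoded ribozyme variants transcribed in situ by E. coli RNA polymerase on sequenced MiSeq chips. Tracking was through a hybridised Cy3 probe at 37 °C. kobs, kcat and KM came from exponential decay fits and weighted Michaelis–Menten fits of normalised per-tile medians.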

glucosamine-6-phosphate [2] = variants of: B1; assay: self-cleavage kobs at 640 uM GlcN6P; higher = faster cleavage; RNA array
Procedure, shortened: as §1

glucosamine-6-phosphate [3] = variants of: B1; assay: self-cleavage kobs at 2500 uM GlcN6P; higher = faster cleavage; RNA array
Procedure, shortened: as §1

glucosamine-6-phosphate [4] = variants of: B1; assay: self-cleavage kobs at 10000 uM GlcN6P; higher = faster cleavage; RNA array
Procedure, shortened: as §1

glucosamine-6-phosphate [5] = variants of: B1; assay: self-cleavage kobs at 40 uM GlcN6P; higher = faster cleavage; RNA array
Procedure, shortened: as §1

glucosamine-6-phosphate [6] = variants of: B1; assay: self-cleavage kobs at 160 uM GlcN6P; higher = faster cleavage; RNA array
Procedure, shortened: as §1

Variant	kcat (glucosamine-6-phosphate [1])	self-cleavage kobs at 640 uM GlcN6P (glucosamine-6-phosphate [2])	self-cleavage kobs at 2500 uM GlcN6P (glucosamine-6-phosphate [3])	self-cleavage kobs at 10000 uM GlcN6P (glucosamine-6-phosphate [4])	self-cleavage kobs at 40 uM GlcN6P (glucosamine-6-phosphate [5])	self-cleavage kobs at 160 uM GlcN6P (glucosamine-6-phosphate [6])
AUAAAACCGCCAGAACUACAGAAAUGUAGUUGACGAGGAGGAGGUUUAUCGAAUUUUCGGCAGAUGCCUCCAAA [G7C G62A]	< 1e-05 s⁻¹	< 1e-05 s⁻¹	< 1e-05 s⁻¹	< 1e-05 s⁻¹		
AUAAAAGCGCCUGAACUACAGAAAUGUAGUUGACGAGUAGGAGGUUUAUCGAAUUUUCGGCGGAUGCCUCCAAA [A12U G38U]	< 1e-05 s⁻¹					
AUAAAAGCGACAGAACUACAGAAAUGUAGUUGACGAGGAGGAGGUUUAUCGAUUUUUCGGCGGAUGCCUCCAAA [C10A A53U]	< 1e-05 s⁻¹	< 1e-05 s⁻¹			< 1e-05 s⁻¹	
AUAAAAGGGCCGGAACUACAGAAAUGUAGUUGACGAGGAGGAGGUUUAUCGAAUUUUCGGCGGAUGCCUCCAAA [C8G A12G]	< 1e-05 s⁻¹			< 1e-05 s⁻¹	< 1e-05 s⁻¹	
AUAAAAGCGCCGGAACUACAGAAAUGUAGUUGACGAGGAGGCGGUUUAUCGAAUUUUCGGCGGAUGCCUCCAAA [A12G A42C]	< 1e-05 s⁻¹	< 1e-05 s⁻¹	< 1e-05 s⁻¹			< 1e-05 s⁻¹
AUAAAAGCGCCAGAAAUACAGAAAUGUAGUUGACGAGGAGGAGGUUUAUCGAAUUUUCGGCGAAUGCCUCCAAA [C16A G63A]	< 1e-05 s⁻¹			< 1e-05 s⁻¹		< 1e-05 s⁻¹
AUAAAAGCGCCAGAACUACAGAAAUGUACUUGACGACGAGGAGGUUUAUCGAAUUUUCGGCGGAUGCCUCCAAA [G29C G37C]	< 1e-05 s⁻¹					
AUAAAAGCGCCAGAGCUACAGAAAUGUAGUUGACGAGAAGGAGGUUUAUCGAAUUUUCGGCGGAUGCCUCCAAA [A15G G38A]	< 1e-05 s⁻¹					
AUAAAAGCGCGAGAACUACAGAAAUGUAGUUGACGAGGAGGAGGUUUAUCGAAUAUUCGGCGGAUGCCUCGAAA [C11G U55A C71G]	< 1e-05 s⁻¹			< 1e-05 s⁻¹	< 1e-05 s⁻¹	
AUAAAAGCGCCAGAAAUACAGAAAUGUAGUUGACGAGGAGGAGGUUUAUCGAAUUUUCUGCGGAUGCCUCCAAA [C16A G59U]	< 1e-05 s⁻¹			< 1e-05 s⁻¹		< 1e-05 s⁻¹
AUAAAAGCGCCAGAAGUACAGAAAUGUAGUUGACGAGGAGGAGGUUUAUCGAAUUUUCGGCAGAUGCCUCCAAA [C16G G62A]	< 1e-05 s⁻¹			< 1e-05 s⁻¹	< 1e-05 s⁻¹	
AUAAAAGCGCCAGAAGUACAGAAAUGUAGUUGACGAGGAGGAGGUUUAUAGAAUUUUCGGCGGAUGCCUCCAAA [C16G C50A]	< 1e-05 s⁻¹				< 1e-05 s⁻¹	
AUAAAAGCGUCAGAACUACAGAAAUGUAGUUGACGAGGAGGAGGUUUAGCGAGUUUUCGGAGUAUGCCUCCAAA [C10U U49G A53G C61A G63U]	< 1e-05 s⁻¹			< 1e-05 s⁻¹		
AUAAAAGCGCCAGAAGUACAGAAAUGUAGUUGACGAGGAGGAGGUUUAUCGAAUUUUCGGCGGUUGCCUCCAAA [C16G A64U]	< 1e-05 s⁻¹	< 1e-05 s⁻¹			< 1e-05 s⁻¹	< 1e-05 s⁻¹
AUAAAAUCGCCAGAACUACAGAAAUGUAGUUGACGAGGAGGAGGUUUAUCGAAUUUUCGGCGGAUGCUUCCAAA [G7U C68U]	< 1e-05 s⁻¹					
AUAAAAGCGCGAGAACUACAGAAAUGUAGUUGACGAGGAGGAGGUUUAUCGAAUUUUCGGCGGAUGCUUCCAAA [C11G C68U]	< 1e-05 s⁻¹				< 1e-05 s⁻¹	
AUAAAAGCUCCAGAACUACAGAAAUGUAGUUGACGAGGAGGAGGUUUAUCGAAUUUUCGGCGGAUGCCUCCAAA [G9U]	< 1e-05 s⁻¹	< 1e-05 s⁻¹			< 1e-05 s⁻¹	< 1e-05 s⁻¹
AUAAAAGCGCCAGAACUACAGAAAUGUAGUUGCCGACGAGGAGGUUUAUCGAAUUUUCGGCGGAUGCCACCAAA [A33C G37C U69A]	< 1e-05 s⁻¹				< 1e-05 s⁻¹	
AUAAAAGCGCCAGCACUACAGAAAUGUAGUUGACGAGGAGGAGGUUUAUCAAAUUUUCGGCGGAUGCCUCCAAA [A14C G51A]	< 1e-05 s⁻¹				< 1e-05 s⁻¹	
AUAAAAGCGCCAGAACUACAGAAAUGUAGUUGCCGAGGAGGAGGUUUAUCGAAUUUUCGCCGGAUGUCUGCAAA [A33C G60C C67U C70G]	< 1e-05 s⁻¹				< 1e-05 s⁻¹	
AUAAAAGCGCCAGAAGUACAGAAAUGUAGUUGACGAGGAGGAGGUUUAUCUAAUUUUCGGCGGAUGCCUCCAAA [C16G G51U]	< 1e-05 s⁻¹	< 1e-05 s⁻¹		< 1e-05 s⁻¹	< 1e-05 s⁻¹	< 1e-05 s⁻¹
AUAAAAGCGACAGAACUACAGAAAUGUAGUUGACGAGGAGGAGGUUUAUCGAAUUUUCGGCGGGUGCCUCCAAA [C10A A64G]	< 1e-05 s⁻¹				< 1e-05 s⁻¹	
AUAAAAGCGCCAGAUCUACAGAAAUGUAGUUGACGACGAGGAGGUUUAUCGAAUUUUCGGCGGAUGCCUCCAAA [A15U G37C]	< 1e-05 s⁻¹					
AUAAAAGCGCCAGAACUACAGAAAUGUAGUUGUCGAGGAGGAGGUUUAACGAAUUUUCGGCGGAUGCCUCCAAA [A33U U49A]	< 1e-05 s⁻¹		< 1e-05 s⁻¹	< 1e-05 s⁻¹	< 1e-05 s⁻¹	
AUAAAACCGCCAGAACUACAGAAAUGUAGUUGACGAGCAGAAGGUUUAUCGAAUUUUCGGCGGAUUCCUCCAAA [G7C G38C G41A G66U]	< 1e-05 s⁻¹					
AUAAAAGCGCCAGACCUACAGAAAUGUAGUUGACGAGGAGGAGGUUUUUCCAAUUUUCGGCGGAUGCGUCCAAA [A15C A48U G51C C68G]	< 1e-05 s⁻¹	< 1e-05 s⁻¹		< 1e-05 s⁻¹		
AUAAAAGCGCCAGGACUACAGAAAUGUAGUCGACGAGGAGGAGGUUUAUCGAAUUUUCGGCUGAGACCUCCAAA [A14G U31C G62U U65G G66A]	< 1e-05 s⁻¹		< 1e-05 s⁻¹	< 1e-05 s⁻¹		< 1e-05 s⁻¹
AUAAAAGCGCAAGAACUACAGAAAUGUAGUUGUCGAGGAGGAGGUUUAUCGAAUUUUCGGCGGAUGCCUCCAAA [C11A A33U]	< 1e-05 s⁻¹	< 1e-05 s⁻¹			< 1e-05 s⁻¹	< 1e-05 s⁻¹
AUAAAGGCGACAGAAUUACAGAAAUGUAGUUGACGAGGAGGAGGUUUAUCGAAUUUUCGGCGGAUGCUUCCAAA [A6G C10A C16U C68U]	< 1e-05 s⁻¹					

— the supplement of paper PMC7125110
